Sequences with one replicate were seen in a single cluster, so their values are uncertain.

This data set has as its system ATP. The data set is described as follows: switch fluorescence ratio, 500 uM ATP over buffer (Cy3 cluster intensity, sum of 5 cycles each) (fold (ratio)); higher = stronger signal-on switching upon ATP binding; sequences stand for … in TCGTCGGCAGCGTCAGATGTGTATAAGAGACAGTTTTTTTTTTTTTTTTTTTTTTTTT…TC. The note with it: aptamer strand: ATP DNA aptamer (quencher-CACCTGGGGGAGTATTGCGGAGGAAGG + anchor), 100 nM annealed; ATP concentration: 500 uM; one replicate. The procedure, abridged:
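Exposure to 500 uM ATP lasted 15 min at 22 °C before imaging, and a selection-buffer image was taken beforehand, for Cy3-labelled switching-strand clusters on a modified Illumina MiSeq flow-cell annealed to 100 nM quencher-labelled ATP aptamer. Five buffer/ATP cycles were run with NaOH stripping and re-annealing between them. The fluorescence ratio per cluster is summed target-cycle over summed buffer-cycle Cy3 intensity, averaged per switch-domain sequence. Clusters outside 100-1000 RFU were excluded.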
Turning to TCCCGCTAGG, the switch fluorescence ratio is 1.01. For CTTGGTTCTT, the switch fluorescence ratio was found to be 0.966. Under CGGGGTGGTC stands 0.909. Turning to TCACAGACTC, the switch fluorescence ratio amounted to 1.23.

With GTTACGGGTA, the switch fluorescence ratio turned out to be 1.01. Regarding GCTGCCAATT, the switch fluorescence ratio was found to be 1.05. Regarding GCCGGAACGT, the switch fluorescence ratio worked out at 0.989. In the case of AGCAGGTCGC, the switch fluorescence ratio was determined as 0.989.

Regarding ACCATTGCTT, the switch fluorescence ratio is 1.03. Consider GTTTACTATC, for which the switch fluorescence ratio is 0.984.

Regarding GTGGCGGTTC, the switch fluorescence ratio is 1.02. With GGGCGAAGGT, the switch fluorescence ratio turned out to be 0.977. In the case of TATTTCCCTC, the switch fluorescence ratio was 1.03. Regarding CTGATTGTAA, the switch fluorescence ratio came to 1.04. Then TCACGTATG, with 1.06; and GATTACGTTT, with 0.998; and CGATGAGACC, with 1.01. As to TGACACATTT, the switch fluorescence ratio is 0.985. For the sequence GATGTAGAGC, the switch fluorescence ratio was found to be 0.973. For CTAGCGGCAT, the switch fluorescence ratio was found to be 1.06. Then TCTAATTCTC, with 1.06; and AGAAGGTAGA, with 1.02; and TTTCACACTG, with 1.01. In the case of CTTTGAACGA, the switch fluorescence ratio came out at 0.977.

Take GCGCACTGCC: the switch fluorescence ratio is 1.14. On to GTTATATGAA, for which the switch fluorescence ratio is 0.923. With ACAGGTCGAC, the switch fluorescence ratio was determined as 1.06. Turning to ATGGTGTCGG, the switch fluorescence ratio worked out at 1.03.

As to ACTGATAACA, the switch fluorescence ratio came to 1.

ACTGATCCCC: the switch fluorescence ratio worked out at 1.03. As to TCAAGCGCCG, the switch fluorescence ratio was determined as 1.01. With AGTGGAGAGT, the switch fluorescence ratio came out at 0.974.

As for TGCAGCTGAG, the switch fluorescence ratio worked out at 0.965.

Consider CATCTTTTCT, for which the switch fluorescence ratio came to 0.962. As to GGTGGCACGG, the switch fluorescence ratio amounted to 0.998. Consider CCGTGTTTAA, for which the switch fluorescence ratio is 1.11.

Take GCTTCAGATT: the switch fluorescence ratio is 0.97. Take AGACGTATGC: the switch fluorescence ratio came to 0.961. For the sequence GGTCGATGAA, the switch fluorescence ratio was 0.977. Take TTACCCCGGC: the switch fluorescence ratio is 1.1. AGCCTGTAT: the switch fluorescence ratio was determined as 0.969. Consider TACTGAACCC, for which the switch fluorescence ratio came to 1.15. On to CTCTTAGGAC, for which the switch fluorescence ratio is 0.998.

Turning to GGTTAATGTG, the switch fluorescence ratio was 1. Then TTGCATATTC, with 1.16; and AAACACTGAG, with 1.18; and ATGTGATGTC, with 0.984.

As to AATTTATTAA, the switch fluorescence ratio was determined as 0.962. Under AGCCGCAGCT stands 1.09. Turning to TAGTGGTTC, the switch fluorescence ratio was 1. In the case of GCCCTTACAC, the switch fluorescence ratio turned out to be 1.05.

TCGTGTCATG: the switch fluorescence ratio was found to be 0.952. On to ACAGAATGTT, for which the switch fluorescence ratio stood at 0.989.

Regarding TTGCGTGACC, the switch fluorescence ratio is 1.1.

Take CCTTATGTTT: the switch fluorescence ratio is 0.953. Turning to GCTCAGCTAG, the switch fluorescence ratio worked out at 1.25. Then GGTTATGTA, with 0.993; and CACTCGCGC, with 1.37; and AGGTTTGCAG, with 1.06.

For ATTAATATGC, the switch fluorescence ratio stood at 1.07. Regarding AGAGATTCTG, the switch fluorescence ratio was determined as 1.01. On to ACAGACAAAC, for which the switch fluorescence ratio was determined as 1.16.

Consider CTGTTCCCCA, for which the switch fluorescence ratio is 1.01. Regarding CGCCAAGCCA, the switch fluorescence ratio was 1.08. On to CATTGTCGGA, for which the switch fluorescence ratio stood at 0.966. Regarding GGCTTTTTAT, the switch fluorescence ratio was 1.81. Regarding CGCTAACCTC, the switch fluorescence ratio amounted to 1.61. On to AACAATTGCT, for which the switch fluorescence ratio was determined as 0.964. Consider GTTATATGCG, for which the switch fluorescence ratio was determined as 1.03.

In the case of GTATCCGCCT, the switch fluorescence ratio amounted to 0.937. Regarding CGTACTCTA, the switch fluorescence ratio stood at 1.11. As for GTAGCTGCTC, the switch fluorescence ratio was found to be 1.51. Then TAATTGTTTC, with 1.02.

Take GAGAGGATCT: the switch fluorescence ratio was 0.968. Turning to TGGGAGTCAT, the switch fluorescence ratio was 1.43.

Take AACTGGGAGG: the switch fluorescence ratio is 1.02. Under ACGTGTGGG stands 0.996.

On to TCGCCGGATA, for which the switch fluorescence ratio came to 1. For ACGTGACCGA, the switch fluorescence ratio was 1.23.

Values taken from the supplement of paper PMC10126150.
